# In all, about 130,000 compounds went through this assay and about 1,200 (0.92%) were called active. The inconclusive results got no clear call from the source; some entries with a clear call stand among them for comparison. Calls follow the shape of the dose curve; as a rule, active = well fitted cell-killing curve with a large enough effect; inconclusive = small, poorly fitted or top-dose-only effect; inactive = no such curve, though single readings can be large or run the other way. Where the call is inconclusive, the potency comes from a doubtful curve fit.
# Assay: qHTS Screen for Compounds that Selectively Target Cancer Cells with p53 Mutations: Cytotoxicity of p53ts Cells at the Permissive Temperature; also: nearly all actives have a fitted effect of over 55% in size;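 as to activity change, negative = cytotoxicity: 0% = DMSO and -100% = full killing by reference compound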
# Details: H1299-p53A138V at 32C, ATP luminescence viability, 24 h; activity change, negative = cytotoxicity: at 46.1 µM (top of the series)
# Summary of the method: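 Viability by ATPlite luminescence after 24 h compound treatment (up to 46 uM) at the permissive 32C. Cells are H1299 carrying p53 A138V. Scale runs from DMSO basal to 100 uM tamoxifen as full kill; AC50 from Hill fits.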
# Potency is read from the fitted curve at half-maximal effect; tags tell the direction and shape of the fitted curve.
Compound,Potency,"activity change, negative = cytotoxicity"
COc1ccccc1-c1cc(C(F)(F)F)nc(S(=O)(=O)CCCC(=O)Nc2ccccc2F)n1,"inconclusive: 31.6 µM [cytotoxic, single point]",
COc1cccc(CCNC(=O)c2ccc(Cn3c(SCc4ccccc4)nc4cccnc43)cc2)c1,"inconclusive: 12.6 µM [cytotoxic, partial curve]",
O=C(Nc1ccc(N2CCCCC2)cc1)c1ccc(F)cc1,active: 7.94 µM,
COC(=O)c1ccc(C2CC(=O)NC3=C2C(=O)CCC3)cc1 (stereo not drawn),"inconclusive: 0.316 µM [cytotoxic, full curve, poor fit]",
Cn1c(=NC(=O)c2cnccn2)sc2ccccc21,active: 15.8 µM,
O=C(Nc1ccc2c(c1)OCCO2)c1ccc(CN2CCOCC2)cc1,"inconclusive: 12.6 µM [cytotoxic, single point]",
CCOc1ccccc1C(=O)N1CCC(c2nc3ccccc3o2)CC1,,inactive: -8.29%
CN(CC(=O)O)Cc1c[nH]c2ccccc12,,inactive: 1.34% [at 9.22 µM]
COc1cc(-c2nc(-c3ccc(NC(=O)c4ccc5c(c4)OCO5)cc3)no2)cc(OC)c1OC,"inconclusive: 25.1 µM [cytotoxic, single point]",
COc1cccc(NC(=O)CSc2c3c(nc4ccccc24)CCCC3)c1,"inconclusive: 31.6 µM [cytotoxic, single point]",
Cc1cc(-c2ccccc2)nc(N2CCN(c3ccccn3)CC2)n1,"inconclusive: 10 µM [cytotoxic, partial curve]",
O=S(=O)(O)c1ccc2c(N=Nc3c(O)ccc4ccccc34)cccc2c1,,inactive: -5.37% [at 9.22 µM]
NC(=O)CSc1nc2ccc(NC(=O)COc3ccccc3Cl)cc2s1,"inconclusive: 35.5 µM [cytotoxic, single point]",
Cn1c(=O)c2cc(S(=O)(=O)N3CCOCC3)ccc2n(C)c1=O,,inactive: -2.83%
COc1ccc(C2=NCC(CSc3nccc(=O)[nH]3)S2)cc1 (stereo not drawn),"inconclusive: 31.6 µM [cytotoxic, single point]",
CCC(C)c1ccc(NC(=O)C2CCN(c3ccc(C(F)(F)F)cn3)CC2)cc1 (stereo not drawn),"inconclusive: 0.0398 µM [cytotoxic, full curve, poor fit]",
CC1CN/C(=C\C(=O)c2ccc(Cl)cc2)C(=O)N1 (stereo not drawn),"inconclusive: 3.16 µM [cytotoxic, partial curve, poor fit]",
CCOc1ccc(C(=O)NCc2ccco2)cc1,"inconclusive: 10 µM [cytotoxic, partial curve]",
CCCCCSc1nnc2c(n1)[nH]c1c(C)cccc12,"inconclusive: 25.1 µM [cytotoxic, partial curve, poor fit]",
Cc1c(C(=O)Nc2ccc(F)c(Cl)c2)sc2nc3n(c(=O)c12)CCC3,"inconclusive: 31.6 µM [cytotoxic, single point]",
Cn1c(-c2ccc3ccccc3n2)nc2cnccc21,"inconclusive: 12.6 µM [cytotoxic, partial curve]",
CCOc1ccc(NC(=O)c2cnccn2)cc1,"inconclusive: 11.2 µM [cytotoxic, partial curve]",
O=C(C1CC1)N1CCc2cc(Br)cc(S(=O)(=O)Nc3ccc(F)c(F)c3)c21,"inconclusive: 25.1 µM [cytotoxic, single point]",

Compound,Potency,"activity change, negative = cytotoxicity"
CCCS(=O)(=O)Nc1cccc(-c2cn3ccc(C)cc3n2)c1,"inconclusive: 14.1 µM [cytotoxic, partial curve]",
Cc1nc(-c2ccc(NC(=O)c3cccs3)cc2)cs1,active: 1.26 µM,
COc1cc(C2N(c3ccccc3)CCN2c2ccccc2)ccc1OC(C)=O,,inactive: -2.18%
CN(C)c1ncc2nc(CCc3ccccc3)c(=O)n(CCC#N)c2n1,,inactive: 3.05%
C=C1C(=O)C=C2CN(C(=O)c3ccccc3)[C@@](Cc3ccc(F)cc3)(C(=O)OC)[C@@H]12,active: 3.16 µM,
Cc1ccc(C)c(N2CCN(CCCNC(=O)c3cnn(-c4ccc(F)cc4)c3C3CCN(C(=O)OC(C)(C)C)CC3)CC2)c1,"inconclusive: 31.6 µM [cytotoxic, single point]",
Cc1cc(=O)[nH]c(SCCOc2ccc(OC(C)C)cc2)n1,"inconclusive: 6.31 µM [cytotoxic, partial curve]",
CN1CCN(Cc2nc3c(c(=O)n(C)c(=O)n3C)n2Cc2ccccc2Cl)CC1,"inconclusive: 12.6 µM [cytotoxic, single point]",
COc1ccc(CNC(=O)CC(c2ccc(OC)cc2)N2Cc3ccccc3C2=O)cc1 (stereo not drawn),,inactive: 7.65%
COc1ccc(CCNC(=O)c2c(C)oc3ncn(C)c(=O)c23)c(OC)c1,,inactive: 2.4%
COc1ccc(F)cc1S(=O)(=O)Nc1cccc(-c2ccc(N3CCC(C)CC3)nn2)c1,"inconclusive: 12.6 µM [cytotoxic, partial curve]",
COc1ccc(Nc2ncnc3c2nc2n3CCCCC2)cc1,"inconclusive: 35.5 µM [cytotoxic, single point]",
Cc1ccc(C)c(N2CCN(C(=O)CCCOc3cc(=O)n(C)c4ccccc34)CC2)c1,"inconclusive: 31.6 µM [cytotoxic, single point]",
COc1ccc(N=Cc2c(O)c3ccccc3oc2=O)cc1,"inconclusive: 35.5 µM [cytotoxic, single point]",
O=C(NCc1cccc(F)c1)c1ccc(NC(=O)c2nsc3ccccc23)cc1,active: 11.2 µM,
Cc1ccc(/C=C/C(=O)Nc2ccccc2C(N)=O)o1,active: 7.94 µM,
CCCCN1C(=O)C(O)(CC(=O)c2ccc(C)cc2C)c2cc(Br)ccc21 (stereo not drawn),"inconclusive: 28.2 µM [cytotoxic, single point]",
COc1cccc2oc(-c3ccc(O)cc3)cc(=O)c12,active: 6.31 µM,
COc1ccc(/C=C/C(=O)Nc2nc(-c3cccs3)ns2)cc1OC,"inconclusive: 20 µM [cytotoxic, single point]",
CCn1c2ccccc2c2nnc(SCCCn3c(=O)[nH]c4ccccc43)nc21,"inconclusive: 31.6 µM [cytotoxic, single point]",
CCc1ccc(S(=O)(=O)Nc2cccc(-c3ccc(N4CCOCC4)nn3)c2)cc1,"inconclusive: 17.8 µM [cytotoxic, single point]",
Cc1ccc(C)c(N2CCN(C(=O)CSCc3ccccc3Cl)CC2)c1,"inconclusive: 12.6 µM [cytotoxic, single point]",
O=C(Cc1csc2nc(-c3ccc(F)cc3)cn12)NCc1ccccc1,,inactive: -8.07%

Compound,Potency,"activity change, negative = cytotoxicity"
Nc1nc2ccc(-c3nc4ccccc4o3)cc2s1,"inconclusive: 35.5 µM [cytotoxic, single point]",
O=C(Nc1ccc2c(c1)N(C1CCCC1)C(=O)c1ccccc1S2)c1ccccc1F,"inconclusive: 3.98 µM [cytotoxic, full curve, poor fit]",
Cn1c(NCc2ccccc2Cl)nc2ccccc21,"inconclusive: 25.1 µM [cytotoxic, single point]",
CSCCC(NC(=O)c1cncc(Br)c1)C(=O)O (stereo not drawn),"inconclusive: 20 µM [cytotoxic, single point]",
Cc1ccc(C)c(N2CCN(C(=O)NCc3noc4ccc(C)cc34)CC2)c1,"inconclusive: 22.4 µM [cytotoxic, single point]",
COc1ccc2[nH]c3c(c2c1)CCN(C(=O)c1cccc(Cl)c1)C3c1ccc(F)cc1 (stereo not drawn),"inconclusive: 0.794 µM [cytotoxic, full curve, poor fit]",
COc1cc2cc(C(=O)Nc3ccccc3)c(N)nc2cc1OC,"inconclusive: 10 µM [cytotoxic, partial curve]",
COc1ccc(C2=C(N)c3ccccc3C2=O)cc1,"inconclusive: 10 µM [cytotoxic, partial curve]",
CCOC(=O)c1ccc(N=c2sc(C(=O)OC)cc(=O)n2CCCN2CCOCC2)cc1,,inactive: 18.1%
FC(F)(F)c1cc(-c2ccco2)nc(NCc2cccs2)n1,"inconclusive: 25.1 µM [cytotoxic, single point]",
N#C[C@@H](Cc1ccc(O)c(O)c1)C(=O)N1CCc2ccccc21,,inactive: 60.3%
COc1ccc2[nH]cc(CCNc3nc(-c4ccc(N(C)C)cc4)nc4ccccc34)c2c1,active: 10 µM,
Cc1cc(=O)[nH]c2cc(Cl)ccc12,"inconclusive: 0.0398 µM [cytotoxic, full curve]",
Cc1ccc(NC(=O)c2ccccc2)s1,active: 3.98 µM,
COc1ccc(CCNC(=O)c2ccc3c(c2)N(Cc2ccc(F)cc2)C(=O)CS3)cc1OC,,inactive: 9.08%
O=C(COc1ccc(Cl)cc1)Nc1ccc2nc(SCC(=O)N3CCCC3)sc2c1,,inactive: -5.71%
Cc1cc(C(=O)NP(=O)(N2CCOCC2)N2CCOCC2)c(C)n1-c1ccc(N(C)C)cc1,"inconclusive: 0.01 µM [cytotoxic, full curve, poor fit]",
C/C=C(\CS(=O)(=O)c1ccccc1)S(=O)(=O)c1ccccc1,"inconclusive: 31.6 µM [cytotoxic, single point]",
O=C(CSc1nnc2ccc3ccccc3n12)Nc1ccccc1Cl,"inconclusive: 5.62 µM [cytotoxic, partial curve, poor fit]",
COc1cccc(/C=C/C(=O)Nc2ccc3nc(N4CCN(C)CC4)cc(C)c3c2)c1OC,"inconclusive: 25.1 µM [cytotoxic, single point]",
Cc1ccc(C)c(NC(=O)CSc2nnc(CCCCCNC(=O)OC(C)(C)C)o2)c1,"inconclusive: 12.6 µM [cytotoxic, single point]",
CCc1ccccc1N1CC(c2nc3ccccc3n2CCCCOc2ccccc2)CC1=O (stereo not drawn),"inconclusive: 31.6 µM [cytotoxic, single point]",

# — PubChem BioAssay AID924 (National Center for Advancing Translational Sciences (NCATS), 2007)
